According to the supplement of paper PMC7580552:
Counter-ions that a name gives are not always drawn. Some of the results follow. Single values are uncertain, as repeats are few or missing.

system: Escherichia coli W3110; experiment: planktonic growth (OD600) relative to untreated control; higher = more growth; details: 10 µM; 20-24 h; 30 °C; TB
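Also: stationary (unshaken) cultures in 96-well plates, started at OD600 0.05 from mid-exponential cells, with compounds supplied from DMSO stocks.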

Row | Compound | planktonic growth [%]
1 | CCC(Cc1c(I)cc(I)c(N)c1I)C(=O)O (stereo not given) [Iopanoic acid] | 93
2 | CCC(NC(C)C)C(O)c1ccc(O)c(O)c1 (stereo not given) [Isoetharine mesylate salt] | 94
3 | CN1CCc2cccc3c2[C@H]1Cc1ccc(O)c(O)c1-3 [R(-) Apomorphine hydrochloride hemihydrate] | 28
4 | CC(C)(C(=O)c1cccnc1)c1cccnc1 [Metyrapone] | 95
5 | O=c1cc(-c2ccc(O)c(O)c2)oc2cc(O)cc(O)c12 [Luteolin] | 97
6 | CC(C)/N=c1\cc2n(-c3ccc(Cl)cc3)c3ccccc3nc-2cc1Nc1ccc(Cl)cc1 [Clofazimine] | 101
7 | O=C1Cc2cc(CCN3CCN(c4nsc5ccccc45)CC3)c(Cl)cc2N1 [Ziprasidone Hydrochloride] | 115
8 | CCN[C@H]1C[C@H](C)S(=O)(=O)c2sc(S(N)(=O)=O)cc21 [Dorzolamide hydrochloride] | 95
9 | CC(C)(S)C(N)C(=O)O (racemic) [D,L-Penicillamine] | 104
10 | CC(=O)N(O)CCCCCNC(=O)CCC(=O)N(O)CCCCCNC(=O)CCC(=O)N(O)CCCCCN [Deferoxamine mesylate] | 54
11 | CCCCOC(=O)c1ccc(N)cc1 [Butamben] | 114
12 | CCCCC1=NC2(CCCC2)C(=O)N1Cc1ccc(-c2ccccc2-c2nnn[nH]2)cc1 [Irbesartan] | 96
13 | N[C@@H]1CCCCN(c2c(F)cc3c(=O)c(C(=O)O)cn(C4CC4)c3c2Cl)C1 [Besifloxacin hydrochloride] | 29
14 | CC[C@H]1OC(=O)[C@H](C)[C@@H](O[C@H]2C[C@@](C)(OC)[C@@H](O)[C@H](C)O2)[C@H](C)[C@@H](O[C@@H]2O[C@H](C)C[C@H](N(C)C)[C@H]2O)[C@](C)(OC)C[C@@H](C)C(=O)[C@H](C)[C@@H](O)[C@]1(C)O [Clarithromycin] | 44
15 | CCOc1ccccc1OCC1CNCCO1 (stereo not given) [Viloxazine hydrochloride] | 95
16 | CC(C)(C)C(=O)OCOC(=O)[C@@H]1N2C(=O)[C@@H](NC(=O)[C@H](N)c3ccccc3)[C@H]2SC1(C)C [Pivampicillin] | 104
17 | O=C1NCN(c2ccccc2)C12CCN(CCCC(c1ccc(F)cc1)c1ccc(F)cc1)CC2 [Fluspirilen] | 101
18 | N=C(N)NC(=O)c1nc(Cl)c(N)nc1N [Amiloride hydrochloride dihydrate] | 112
19 | NS(=O)(=O)c1cc(C(=O)O)c(NCc2ccco2)cc1Cl [Furosemide] | 94
20 | Cc1cc(C2CCCCC2)n(O)c(=O)c1 [Ciclopirox ethanolamine] | 90
